Where “and” joins values, the source holds several entries; their conditions need not be identical. Equal entries are not always repeated. This list was built around the results that the source calls inconclusive (neither active nor inactive); the mix of calls is not that of the screen. Potencies of inconclusive entries are doubtful fits and often do not repeat. Some compounds were tested as several samples or in several runs, with calls that do not always agree. Calls of active or inactive are those of the source. Calls come from the whole dose curve; as a rule, active = well fitted curve in the direction sought with a large enough effect in the repeat runs; inconclusive = weak or mixed curves; inactive = no such curve, though single readings can be large; an effect the other way counts as inactive or inconclusive.
Columns and labels:
[1] = qHTS RealTime-Glo MT Cell Viability Assay in HepG2 cells - 40 hour (AID 1224870); settings: RealTime-Glo luminescence; series mostly up to 76.8 µM; note: nearly all actives have a fitted effect of over 50% in size
Method in brief: (§1)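 HepG2 cells mixed with RealTime-Glo MT reagents (NanoLuc plus cell-permeant prosubstrate) were seeded at 600 cells/well, incubated 5 h at 37 C/5% CO2, then pinned with compounds in DMSO; nonlytic luminescence tracked viability during 40 h treatment.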

[2] = A CellTox Green Cytotoxicity Assay to monitor cytotoxicity in HEK293 cells - 40 hour (AID 1224871); settings: CellTox Green fluorescence; series mostly up to 76.8 µM; note: nearly all actives have a fitted effect of over 45% in size
Method in brief: (§2)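 Cells (HEK293, 600/well) and dye reagent are dispensed together. After 5 h at 37 C, 23 nL compound is pinned in. Plates stay at 37 C for 40 h with fluorescence read at 0h, 8h, 16h, 24h, 32h and 40h.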

[3] = qHTS RealTime-Glo MT Cell Viability Assay in HEK293 cells - 16 hour (AID 1224872); settings: RealTime-Glo luminescence; series mostly up to 76.8 µM; note: nearly all actives have a fitted effect of over 50% in size
Method in brief: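 Homogeneous bioluminescent viability format in HEK293 cells (600 cells/well). Following 5 h at 37 C/5% CO2, 23 nL compound was pintooled; the signal was measured repeatedly during 40 h incubation.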

[4] = qHTS RealTime-Glo MT Cell Viability Assay in HEK293 cells - 40 hour (AID 1224874); settings: RealTime-Glo luminescence; max response: stronger effect = lower value; note: nearly all actives have a fitted effect of over 50% in size
Method in brief: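 Real-time viability in HEK293: signal arises when living cells convert a prosubstrate for NanoLuc in the medium, so luminescence tracks viable cell number. Compound (23 nL, DMSO) added 5 h post-seeding; kinetic reads at 0–40 h, 37 C.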

[5] = A CellTox Green Cytotoxicity Assay to monitor cytotoxicity in HEK293 cells - 24 hour (AID 1224875); settings: CellTox Green fluorescence; series mostly up to 76.8 µM; note: nearly all actives have a fitted effect of over 45% in size
Method in brief: as §2

[6] = A CellTox Green Cytotoxicity Assay to monitor cytotoxicity in HepG2 cells - 16 hour (AID 1224876); settings: CellTox Green fluorescence; series mostly up to 76.8 µM; note: nearly all actives have a fitted effect of over 45% in size
Method in brief: (§3)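 Cells and non-lytic dye reagent are dispensed together (600 HepG2 cells/well) and incubated 5 h before DMSO compound transfer. Kinetic fluorescence is then recorded in the same wells during 40 h at 37 C.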

[7] = A CellTox Green Cytotoxicity Assay to monitor cytotoxicity in HepG2 cells - 24 hour (AID 1224878); settings: CellTox Green fluorescence; series mostly up to 76.8 µM; note: nearly all actives have a fitted effect of over 45% in size
Method in brief: as §3

[8] = A CellTox Green Cytotoxicity Assay to monitor cytotoxicity in HepG2 cells - 40 hour (AID 1224879); settings: CellTox Green fluorescence; series mostly up to 76.8 µM; note: nearly all actives have a fitted effect of over 40% in size
Method in brief: as §3

[9] = qHTS RealTime-Glo MT Cell Viability Assay in HepG2 cells - 8 hour (AID 1224873); settings: RealTime-Glo luminescence; series mostly up to 76.8 µM; note: nearly all actives have a fitted effect of over 55% in size
Method in brief: as §1

[10] = qHTS RealTime-Glo MT Cell Viability Assay in HepG2 cells - 32 hour (AID 1224877); settings: RealTime-Glo luminescence; series mostly up to 76.8 µM; note: nearly all actives have a fitted effect of over 55% in size
Method in brief: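 Cell number in HepG2 cultures estimated from NanoLuc luminescence generated by metabolic reduction of a prosubstrate by living cells. The homogeneous, nonlytic format allowed repeated reads at 0, 8, 16, 24, 32 and 40 h of compound exposure.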
Potency is the fitted concentration of half-maximal effect; tags give direction and shape of the fitted curve.

Structure (SMILES)	Potency [1]	Potency [2]	Potency [3]	Potency [4]	Potency [5]	Potency [6]	Potency [7]	Potency [8]	Potency [9]	Potency [10]
Nc1c2ccccc2nc2ccccc12	active: 24.2 µM and active: 13.4 µM	inconclusive: 6.01 µM [activator, partial curve, poor fit]	inconclusive: 21.3 µM [cytotoxic, partial curve]	active: 4.83 µM and active: 2.39 µM	inconclusive: 54.2 µM [activator, single point] and inconclusive: 26.8 µM [activator, single point]	inactive and active: 13.4 µM	inconclusive: 10.8 µM [activator, full curve, poor fit]	active: 10.8 µM and active: 10.7 µM	–	–
CNCc1cc(F)ccc1Oc1ccc(Cl)c(Cl)c1	inconclusive: 54.9 µM [falling, single point]	active: 49 µM	inconclusive: 34.7 µM [cytotoxic, partial curve]	–	–	–	–	–	inconclusive: 49 µM [falling, partial curve, poor fit]	–
CN1CCN(C2Cc3ccccc3Sc3ccc(Cl)cc32)CC1 (configuration not stated)	inconclusive: 26.8 µM [falling, single point]	active: 21.3 µM	inconclusive: 21.3 µM [cytotoxic, partial curve, poor fit]	–	active: 21.3 µM	–	–	–	inconclusive: 23.9 µM [falling, single point]	active: 23.9 µM
C=CC(=O)OCCCCCCOC(=O)C=C	inconclusive: 54.9 µM [falling, single point]	inconclusive: 55.6 µM [activator, single point] and active: 54.9 µM	inconclusive: 49.6 µM [cytotoxic, single point] and inconclusive: 38.9 µM [cytotoxic, partial curve]	active: 49.6 µM and active: 43.6 µM	inconclusive: 62.4 µM [activator, single point] and inconclusive: 54.9 µM [activator, single point]	–	inconclusive: 61.7 µM [activator, single point]	active: 54.9 µM	–	–
C=CC(=O)OCCOCCOC(=O)C=C	inconclusive: 55.2 µM [falling, single point]	inconclusive: 49.2 µM [activator, partial curve, poor fit]	inconclusive: 34.8 µM [cytotoxic, partial curve]	–	inconclusive: 61.9 µM [activator, single point]	–	inconclusive: 55.2 µM [activator, partial curve, poor fit]	–	inconclusive: 19.6 µM [falling, partial curve]	inconclusive: 55.2 µM [cytotoxic, single point]
OCCN1CCN(CCCN2c3ccccc3Sc3ccc(C(F)(F)F)cc32)CC1	inconclusive: 26.8 µM [falling, single point]	inconclusive: 26.8 µM [activator, single point]	inconclusive: 26.8 µM [cytotoxic, single point]	–	inconclusive: 26.8 µM [activator, single point]	inconclusive: 26.8 µM [activator, single point]	–	–	inconclusive: 26.8 µM [falling, single point]	inconclusive: 26.8 µM [cytotoxic, single point]
CCC(C)NC(N)=O (configuration not stated)	inactive	–	–	–	–	–	–	–	–	–
Cc1cn([C@H]2C[C@H](F)[C@@H](CO)O2)c(=O)[nH]c1=O	inactive	–	–	–	–	–	–	–	–	–
c1cnc2c(c1)ccc1cccnc12	inconclusive: 62.2 µM [falling, partial curve, poor fit]	active: 49.4 µM and active: 43.6 µM and inactive	inconclusive: 3.93 µM [cytotoxic, full curve] and inconclusive: 9.77 µM [cytotoxic, full curve] and active: 11 µM	active: 3.12 µM and active: 7.76 µM and active: 6.92 µM	–	–	–	–	inconclusive: 55.5 µM [falling, partial curve, poor fit]	inconclusive: 49.4 µM [cytotoxic, partial curve, poor fit]
CCC(Cl)C(Cl)C(Cl)CC(Cl)C(Cl)C(C)Cl (configuration not stated)	inactive	inactive	inconclusive: 21.9 µM [cytotoxic, partial curve, poor fit]	–	–	–	–	–	–	–
CN(C)[C@@H](CCOc1cccc2ccccc12)c1ccccc1	inconclusive: 26.8 µM [falling, single point]	inconclusive: 26.8 µM [activator, single point]	inconclusive: 26.8 µM [cytotoxic, single point]	inconclusive: 26.8 µM [cytotoxic, single point]	inconclusive: 26.8 µM [activator, single point]	inconclusive: 26.8 µM [activator, single point]	inconclusive: 26.8 µM [activator, single point]	inconclusive: 26.8 µM [activator, single point]	inconclusive: 23.9 µM [falling, single point]	inconclusive: 26.8 µM [cytotoxic, single point]
CC(C)C(C)(C)C(C)(C)C(C)(C)S	inconclusive: 49 µM [phenotype inactive, partial curve]	inactive	inconclusive: 21.9 µM [cytotoxic, partial curve, poor fit]	–	inactive	–	–	–	–	–
NCCNc1cccc2ccccc12	inconclusive: 54.9 µM [falling, single point] and inconclusive: 53.6 µM [falling, single point]	inconclusive: 54.9 µM [activator, single point] and inconclusive: 53.6 µM [activator, single point]	active: 54.9 µM and active: 47.8 µM	active: 54.9 µM and active: 53.6 µM	inconclusive: 54.9 µM [activator, single point] and inconclusive: 53.6 µM [activator, single point]	inconclusive: 54.9 µM [activator, single point] and inconclusive: 53.6 µM [activator, single point]	inconclusive: 54.9 µM [activator, single point]	inconclusive: 54.9 µM [activator, single point]	–	inconclusive: 54.9 µM [cytotoxic, single point] and inconclusive: 53.6 µM [cytotoxic, single point]
CCCCCCCCCCCC[N+](C)(C)Cc1ccccc1	active: 8.54 µM and active: 16.8 µM and active: 6.74 µM	–	active: 24.1 µM and active: 23.8 µM and active: 8.49 µM	–	–	active: 21.5 µM and active: 26.7 µM and active: 19 µM	–	–	active: 48 µM and active: 53.2 µM and active: 26.8 µM	–
CCCCCCCCCCCCCC[N+](C)(C)C	active: 7.5 µM and active: 17.4 µM and active: 23.9 µM	–	active: 21.1 µM and active: 6.91 µM and inconclusive: 2.39 µM [cytotoxic, full curve]	–	–	–	–	–	active: 18.8 µM and active: 54.9 µM	active: 9.44 µM and active: 19.5 µM and active: 23.9 µM
COC(=O)C1=C(C)NC(C)=C(C(=O)O[C@@H]2CCCN(Cc3ccccc3)C2)[C@@H]1c1cccc([N+](=O)[O-])c1	inconclusive: 23.9 µM [falling, partial curve, poor fit]	–	inconclusive: 23.9 µM [cytotoxic, partial curve, poor fit]	–	–	–	–	–	–	inconclusive: 21.3 µM [cytotoxic, partial curve, poor fit]
O[C@@H](c1cc(C(F)(F)F)nc2c(C(F)(F)F)cccc12)[C@H]1CCCCN1	active: 13.4 µM	–	–	–	–	–	–	active: 15.1 µM	active: 23.9 µM	–
COc1ccc(C(=O)/C(Br)=C\C(=O)O)cc1	inconclusive: 24.5 µM [falling, full curve]	–	active: 38.9 µM	–	–	–	inconclusive: 13.8 µM [activator, partial curve]	active: 13.8 µM	–	inconclusive: 19.5 µM [cytotoxic, full curve]
Nc1nnc(-c2ccc([N+](=O)[O-])o2)o1	inconclusive: 54.9 µM [falling, single point]	–	–	–	–	–	–	inconclusive: 54.9 µM [activator, single point]	–	inconclusive: 49 µM [cytotoxic, single point]
CC(=O)OC(OC(C)=O)c1ccc([N+](=O)[O-])o1	inconclusive: 62.7 µM [falling, single point]	–	–	active: 44.4 µM	inconclusive: 55.9 µM [activator, single point]	inconclusive: 55.9 µM [activator, single point]	inconclusive: 55.9 µM [activator, single point]	–	inconclusive: 49.8 µM [falling, single point]	inconclusive: 55.9 µM [cytotoxic, single point]
